Results from article PMC4336329 (PLoS ONE, 2015).
Screen size: about 310,000 compounds; about 14,000 (4.5%) showed an effect of 50% or more. Effects have a minus sign here. This is one part of the list.

Each molecule was assayed against human ether-à-go-go-related gene (hERG) potassium channel (human, UniProt Q12809) (assay: primary screen, population patch clamp on CHO cells stably expressing hERG).
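Note: peak tail current of the secondary pulse compared with the same well before compound.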

human ether-à-go-go-related gene (hERG) potassium channel, sequence (Q12809 whole entry, looked up): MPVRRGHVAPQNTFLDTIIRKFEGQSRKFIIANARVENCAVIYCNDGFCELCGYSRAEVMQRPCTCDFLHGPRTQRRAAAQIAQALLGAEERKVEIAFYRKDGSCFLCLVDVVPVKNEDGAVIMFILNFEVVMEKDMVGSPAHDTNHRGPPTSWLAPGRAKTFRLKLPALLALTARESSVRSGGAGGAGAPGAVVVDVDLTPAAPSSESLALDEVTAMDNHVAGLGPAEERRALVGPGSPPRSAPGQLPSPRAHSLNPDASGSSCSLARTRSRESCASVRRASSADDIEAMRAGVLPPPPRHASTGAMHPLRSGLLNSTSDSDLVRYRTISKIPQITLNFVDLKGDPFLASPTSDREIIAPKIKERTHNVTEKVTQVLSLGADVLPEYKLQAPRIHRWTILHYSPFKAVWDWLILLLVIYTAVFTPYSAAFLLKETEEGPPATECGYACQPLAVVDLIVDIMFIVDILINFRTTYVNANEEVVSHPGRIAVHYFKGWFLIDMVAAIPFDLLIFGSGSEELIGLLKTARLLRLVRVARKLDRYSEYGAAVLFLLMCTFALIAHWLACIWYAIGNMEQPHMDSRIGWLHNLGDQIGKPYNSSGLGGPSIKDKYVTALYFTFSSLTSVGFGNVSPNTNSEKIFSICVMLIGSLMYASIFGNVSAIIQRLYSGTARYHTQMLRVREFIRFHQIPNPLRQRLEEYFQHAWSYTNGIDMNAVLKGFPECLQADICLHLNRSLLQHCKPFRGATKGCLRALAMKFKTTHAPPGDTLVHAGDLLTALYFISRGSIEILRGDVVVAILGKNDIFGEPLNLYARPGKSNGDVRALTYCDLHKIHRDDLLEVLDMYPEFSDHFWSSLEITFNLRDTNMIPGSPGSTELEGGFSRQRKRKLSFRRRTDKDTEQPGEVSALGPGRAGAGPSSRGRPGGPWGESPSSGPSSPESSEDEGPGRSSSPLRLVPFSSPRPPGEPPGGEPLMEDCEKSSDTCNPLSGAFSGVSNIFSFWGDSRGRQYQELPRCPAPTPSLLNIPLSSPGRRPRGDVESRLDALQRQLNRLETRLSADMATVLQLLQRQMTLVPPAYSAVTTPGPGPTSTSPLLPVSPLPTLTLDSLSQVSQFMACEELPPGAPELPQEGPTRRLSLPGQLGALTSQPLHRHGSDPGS

SMILES | hERG current change (%, negative = inhibition) at 10uM [%]
O=C(COc1ccccc1)OCC(=O)c1c[nH]c2ccccc12 | -0.439
Cc1ccc(-c2nc(CN3CCN(C(=O)C4CCCO4)CC3)cs2)cc1 (stereo not drawn) | -1.49
Cc1ccc(N=C2CSC(=O)N2)cc1 | 20.9
CC12CCC(C(=O)NCCCn3ccnc3)(OC1=O)C2(C)C (stereo not drawn) | 12.7
COc1ccc(S(=O)(=O)N(CC(=O)NCCCN(C)C)c2ccc(C)cc2)cc1OC | -56.6
O=C(c1cn[nH]c1)N1CCc2c([nH]c3ccccc23)C1c1c(F)cccc1Cl (stereo not drawn) | -6.01
COc1ccc(NC(=O)c2cc3c(Cl)nc4ccccc4c3s2)c(OC)c1 | -1.31
CCOC(=O)C(=CNc1ccc2c(c1)c1ccccc1n2CC)C(=O)OCC | 20.5
Cc1ccccc1-c1nc(CN2CCC(C(=O)NCCCN3CCOCC3)CC2)c(C)o1 | -10.8
O=C(O)c1ccc(-c2sc(Nc3ccccc3)n[n+]2-c2ccccc2)cc1.[Cl-] | 6.22
O=C(COc1ccc(C(=O)NCCN2CCOCC2)cc1)Nc1cccc(C(F)(F)F)c1 | -14.7
O=C(CSCc1cc(=O)n2nc(C3CC3)sc2n1)Nc1ccccc1Cl | 3.48
O=C(NCc1ccco1)C1CCCN(S(=O)(=O)c2ccccc2)C1 (stereo not drawn) | -1.99
O=C(Oc1ccc(C(=S)N2CCOCC2)cc1Cl)c1ccccc1F | 7.84
Cc1ccc(OCCn2cc(C(=O)O)c3ccccc32)cc1 | -2.89
O=C(O)c1c[nH]c(=S)n1-c1ccc(F)cc1 | 30.5
CC(C)CNC(=O)CN(C1CCCCC1)S(C)(=O)=O | -24
c1ccc(-c2ccc(-c3nc(-c4ccccn4)no3)cc2)cc1 | 12.6
COc1ccc(Cl)cc1NC(=O)CN1CCN(S(=O)(=O)N2CCC(C)CC2)CC1 | -32.1

SMILES | hERG current change (%, negative = inhibition) at 10uM [%]
O=C(COC(=O)CNS(=O)(=O)c1cccc(Br)c1)NC(=O)Nc1ccc2c(c1)OCCO2 | 36.9
COc1cccc(C(=O)N(Cc2ccc3c(c2)OCO3)Cc2nc3ccccc3c(=O)[nH]2)c1 | -10.8
COc1ccc(C)cc1NC(=O)c1ccc(NC(=O)CC2SC(N3CCCC3)=NC2=O)cc1 (stereo not drawn) | 18.2
Cc1ccc(OC(F)F)c(NC(=O)Nc2cccc(C(F)(F)F)c2)c1 | 1.77
Cn1cc(CCNC(=O)CC2C(=O)NCCN2Cc2cccc(Oc3ccccc3)c2)cn1 (stereo not drawn) | 6.49
CCOc1ccc(C)cc1S(=O)(=O)n1ccc(C)n1 | 4.82
COc1cccc(/C=N/Nc2nc3ccccc3n3cnnc23)c1O | -6.87
CC1CCN(CCCNC(=O)c2cc3c(=O)n(C)c4ccccc4c3n2C)CC1 | -14.9
CCOc1ccc2[nH]c(C)c(CN(C)C)c(=O)c2c1 | 38.9
CC(C)C(NC(=O)c1ccc(C(C)(C)C)cc1)C(=O)NCCc1ccccn1 (stereo not drawn) | -6.22
Cc1ccc(CNC(=O)[C@H](C)NC(=O)C2CCN(C(=O)[C@@H]3CCCN3C(=O)OC(C)(C)C)CC2)cc1 | 4.79
COc1ccc(-c2[nH]ncc2CNC(C)Cc2ccsc2)c(F)c1 (stereo not drawn) | -36.1
COC(=O)C1=C(NC(=O)c2cccc(OC)c2)CCS1 | 12.4
CCN1C(=O)CC(NCc2ccc3c(c2)OCO3)C1=O (stereo not drawn) | -9.23
CCOC(=O)N1CCC(NC(=O)c2cc3c(-c4ccc(Cl)cc4)nn(C)c3s2)CC1 | 4.16
C=CCN(C(=O)c1csnn1)C(C(=O)NC1CCCCC1)c1ccc(Cl)cc1 (stereo not drawn) | 8.7
COC(=O)c1ccc(-c2nc3ccc(C)cc3o2)cc1 | 1.55
CN(C)/C=C/C(=O)c1cnc2n(c1=O)CCS2 | 7.45
COc1cccc(CNC(=O)CCNC(=O)c2ccc(Br)o2)c1 | 11.2

SMILES | hERG current change (%, negative = inhibition) at 10uM [%]
S=C(c1cn(Cc2ccc(Br)cc2)c2ccccc12)N1CCOCC1 | -16.2
CCC(C)n1c(O)c(C=Nc2cccc(C(F)(F)F)c2)c(=O)[nH]c1=S (stereo not drawn) | 0.516
Cc1c(Cl)c([N+](=O)[O-])nn1CC(=O)N1CCN(Cc2ccccc2)CC1 | -71
Cc1ccc(N/C(CSC(N)=O)=N/S(=O)(=O)c2ccccc2)cc1 | -12.5
N#C/C(=C(/O)CN1CCN(c2ccccc2F)CC1)c1nc(-c2ccccc2)cs1 | 21.1
N#Cc1c(NC(=O)Cn2nc(C(F)(F)F)c3c2CCCC3)sc2c1CCC2 | 15.4
CC(C)c1ccc(NC(=O)NC2CCCCC2)cc1 | 10.8
N#Cc1nc(-c2cccs2)oc1NCc1ccccc1Cl | 14.4
CCOC(=O)/C=C1\SCC(=O)N1CC(=O)c1ccc[nH]1 | 8.08
C=CCn1c(O)c(C(C)=Nc2ccc(N(CC)CC)cc2)c(=O)[nH]c1=O | -26.9
O=S(=O)(NN1CCOCC1)c1ccc(Br)cc1 | 2.75
CSc1nnc(C)c(=O)[nH]1 | 5.11
CC(=O)NC(CC(=O)OCC(=O)c1c(N)n(C)c(=O)n(C)c1=O)c1ccccc1 (stereo not drawn) | 10.6
CCCC(C(=O)NC1CCCC1)N(CC1CCCO1)C(=O)CNS(=O)(=O)c1ccccc1 (stereo not drawn) | 1.1
CCOC(=O)CSc1nc(NCc2ccco2)c2ccccc2n1 | -56.1
C=CCN(CC=C)Cc1c[nH]c2ccccc12 | 0.037
Nc1nnc(CCS(=O)(=O)c2cc(Cl)ccc2Cl)s1 | -13.7
CCN(CC)C(=O)Cn1cc(S(=O)(=O)CC(=O)NCc2ccc3c(c2)OCO3)c2ccccc21 | -9.63
CCc1cccc2c(C=C(C#N)C#N)cn(CC(=O)N3CCCC3)c12 | -5.76
